Among all 310,000 compounds or so, about 14,000 (4.5%) showed an effect of 50% or more. Effects have a minus sign here. The list shows a part of the results.
These compounds were tested against human ether-à-go-go-related gene (hERG) potassium channel (human, UniProt Q12809) (assay: primary screen, population patch clamp on CHO cells stably expressing hERG).
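Further: peak tail current of the secondary pulse compared with the same well before compound.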

human ether-à-go-go-related gene (hERG) potassium channel, sequence (Q12809 whole entry, looked up): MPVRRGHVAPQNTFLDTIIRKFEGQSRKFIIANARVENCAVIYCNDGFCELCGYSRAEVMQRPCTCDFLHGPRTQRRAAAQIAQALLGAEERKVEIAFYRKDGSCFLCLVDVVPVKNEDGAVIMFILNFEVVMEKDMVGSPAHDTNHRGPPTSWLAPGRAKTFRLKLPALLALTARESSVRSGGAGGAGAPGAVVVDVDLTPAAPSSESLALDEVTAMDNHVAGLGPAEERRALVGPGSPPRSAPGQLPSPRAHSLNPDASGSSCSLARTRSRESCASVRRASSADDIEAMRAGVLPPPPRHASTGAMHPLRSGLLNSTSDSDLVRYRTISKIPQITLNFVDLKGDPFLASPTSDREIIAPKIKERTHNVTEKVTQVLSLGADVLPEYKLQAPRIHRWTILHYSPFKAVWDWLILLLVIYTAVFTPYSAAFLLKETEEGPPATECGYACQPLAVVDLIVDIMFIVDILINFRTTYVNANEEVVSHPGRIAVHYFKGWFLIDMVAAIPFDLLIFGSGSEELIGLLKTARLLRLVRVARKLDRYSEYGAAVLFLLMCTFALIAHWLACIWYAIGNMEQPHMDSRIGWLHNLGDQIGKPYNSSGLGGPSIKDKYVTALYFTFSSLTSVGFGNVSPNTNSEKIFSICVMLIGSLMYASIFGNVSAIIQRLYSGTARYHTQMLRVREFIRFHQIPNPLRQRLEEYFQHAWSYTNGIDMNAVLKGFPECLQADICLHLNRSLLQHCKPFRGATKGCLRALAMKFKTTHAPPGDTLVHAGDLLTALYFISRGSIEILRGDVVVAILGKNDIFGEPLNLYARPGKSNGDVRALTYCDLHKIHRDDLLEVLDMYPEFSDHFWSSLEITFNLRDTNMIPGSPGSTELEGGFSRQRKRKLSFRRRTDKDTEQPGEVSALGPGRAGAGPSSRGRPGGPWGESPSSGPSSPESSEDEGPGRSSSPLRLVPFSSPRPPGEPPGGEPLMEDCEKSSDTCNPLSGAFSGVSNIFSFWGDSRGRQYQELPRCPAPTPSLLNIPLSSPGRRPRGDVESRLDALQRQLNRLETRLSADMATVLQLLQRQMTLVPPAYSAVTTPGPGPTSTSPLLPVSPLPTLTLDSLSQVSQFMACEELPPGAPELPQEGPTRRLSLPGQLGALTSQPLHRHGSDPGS

First: CC(=O)C1=C(N2CCCCC2)CCC1=O
Second: O=C(C1CCN(c2ncnc3c2nc2n3CCCCC2)CC1)N1CCCCC1
The “hERG current change (%, negative = inhibition) at 10uM” value of the first is higher: 23.5% for the first, 16% for the second.

Compared with N#Cc1nc(-c2ccc(F)cc2)oc1NCc1cccc2c1OCO2, N#Cc1c(-c2ccco2)ccn(Cc2ccc(F)cc2)c1=O is lower in “hERG current change (%, negative = inhibition) at 10uM” value: 15% for the first, -14.2% for the second.

Going from COc1cccc(N2CCN(S(=O)(=O)c3cc4c(cc3Cl)NC(=O)CO4)CC2)c1 to Cc1ccccc1C(=O)OCC(=O)N(C)c1c(N)n(Cc2ccccc2)c(=O)[nH]c1=O, the “hERG current change (%, negative = inhibition) at 10uM” value rises from 12% to 18.7%.

Going from CCOC(=O)c1ccccc1NC(=O)COc1cc(=O)n(CC)c2ccccc12 to O=C(Nc1ccccc1C(=O)N/N=C/c1ccco1)c1ccccc1Cl, the “hERG current change (%, negative = inhibition) at 10uM” value falls from 5.47% to 2.55%.

Going from COc1ccc(NC(=O)c2nc[nH]c2C(=O)N(C)Cc2ccccc2)cc1 to CC(=O)N/C(=C\c1ccc(C)o1)C(=O)NCc1ccccc1, the “hERG current change (%, negative = inhibition) at 10uM” value rises from -20.2% to 21.8%.

First: CC(c1ccccn1)N(CCN(C)C)C(=S)Nc1cccc(F)c1 (stereo not shown)
Second: CC(C)CNS(=O)(=O)c1ccc(CCC(=O)Nc2ccc3c(c2)OCO3)cc1
The “hERG current change (%, negative = inhibition) at 10uM” value of the first is lower: -6.86% for the first, 7.54% for the second.

Going from Cc1cc(NC(=O)c2c([N+](=O)[O-])c(C)nn2C)no1 to CCc1nnc(NC(=O)CSc2nc3c(c(=O)n2CC)SC(C)C3)s1 (stereo not shown), the “hERG current change (%, negative = inhibition) at 10uM” value falls from 14% to 6.7%.

Going from Cc1cc(Cl)ccc1NC(=O)/C=N/O to Cc1ccc[n+](C(C)C(=O)c2ccc(Cl)cc2)c1.[Br-] (stereo not shown), the “hERG current change (%, negative = inhibition) at 10uM” value rises from 7.89% to 20.1%.

Going from COC(=O)c1cc(NC(=O)c2cccc(C(F)(F)F)c2)c(=O)oc1C to CCCC(=O)Nc1ccc2oc(-c3ccc(OC)c(Br)c3)nc2c1, the “hERG current change (%, negative = inhibition) at 10uM” value falls from 16.9% to 9.42%.

Compared with CC(=O)Nc1ccc(SCC(=O)OCC(=O)NC(=O)NCc2ccco2)cc1, Cc1ccc(CNC(=O)CSc2ncn[nH]2)cc1 is higher in “hERG current change (%, negative = inhibition) at 10uM” value: 15.4% for the first, 22.4% for the second.

First: CCCC1(C(=O)OCC)NC(c2ccc(N(C)C)cc2)C2C(=O)N(c3ccc(OCC)cc3)C(=O)C21 (stereo not shown)
Second: Cc1cc(OCc2ccc(C(=O)NN=C3CCCC3)cc2)ccc1Cl
The “hERG current change (%, negative = inhibition) at 10uM” value of the first is lower: -3.17% for the first, 1.78% for the second.

Going from O=C(CCC(=O)NCCCc1ccccc1)NCCCc1ccccc1 to O=[N+]([O-])c1ccccc1N/N=C/c1c[nH]c2ccccc12, the “hERG current change (%, negative = inhibition) at 10uM” value rises from 8.6% to 16.2%.

For CN(CCCN1CCCCC1)C(=O)c1cc(COc2ccc(F)cc2F)on1, the “hERG current change (%, negative = inhibition) at 10uM” value was -32.6%.

Reference: paper PMC4336329 (PLoS ONE, 2015)
